Positions of bridges follow the written chain, without caps; N, C: chain ends. No end group written: not given here. *: point of attachment. FITC = O=C1OC2(c3ccc(O)cc3Oc3cc(O)ccc32)c2ccc(NC(=S)*)cc21; Ahx = NCCCCCC(=O)O

The assay concerns the target T1, peptide P1 (disulfide 1-9 (inferred)).
T1 chain: {FITC-Ahx}-CKKNSPTLC
As to the kind of experiment: fluorescence binding assay of FITC-P1 to immunoprecipitated HA-GPR55.

B1: GPR55 (protein)
chain: MSQQNTSGDCLFDGVNELMKTLQFAVHIPTFVLGLLLNLLAIHGFSTFLKNRWPDYAATSIYMINLAVFDLLLVLSLPFKMVLSQVQSPFPSLCTLVECLYFVSMYGSVFTICFISMDRFLAIRYPLLVSHLRSPRKIFGICCTIWVLVWTGSIPIYSFHGKVEKYMCFHNMSDDTWSAKVFFPLEVFGFLLPMGIMGFCCSRSIHILLGRRDHTQDWVQQKACIYSIAASLAVFVVSFLPVHLGFFLQFLVRNSFIVECRAKQSISFFLQLSMCFSNVNCCLDVFCYYFVIKEFRMNIRAHRPSRVQLVLQDTTISRG
Broadly, the Kd is the free concentration of one partner at which half of the binding sites on the other are occupied at equilibrium, for simple one-to-one binding. A low value points to tighter binding. B1 yielded a Kd of approximately 20 µM.
